According to PubChem BioAssay AID493208 (National Center for Advancing Translational Sciences (NCATS), 2011):
Among all 44,000 compounds or so, about 340 (0.77%) were called active. Another 5% or so got no clear call; they are omitted. The call rests on the fitted dose curve; in most records, active means well fitted inhibition curve with a large enough effect; inconclusive means small, poorly fitted or top-dose-only effect; inactive means flat fitted curve, though single readings scatter. This is one part of the list.

Test: Acumen qHTS Assay for Inhibitors of the mTORC1 Signaling Pathway in MEF (Tsc2-/-, p53-/-) Cells: Sytravon;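 further: plate controls were DMSO for no effect and rapamycin for full effect; nearly all actives have a fitted effect of over 50% in size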
Details: phospho-rpS6 immunofluorescence/PI, 24 h; series mostly up to 38.3 µM; activity change, negative = inhibition: at the top concentration
Procedure, shortened: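 Tsc2-/-, p53-/- MEFs (empty-vector stable line) in DMEM + 10% FBS were treated with compounds 24 h at 37 degree Celsius, fixed, and immunostained for phospho-rpS6 (Alexa-488) with propidium iodide counterstain. Laser-scanning cytometry gave % positive cells, normalized against 7.5 nM rapamycin and DMSO.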

Activity change, negative = inhibition, inactive:
COc1ccccc1CNC(=O)CCCCn1c(=O)c2ccccc2n(Cc2c(C)cc(C)cc2C)c1=O -14.2%
COc1ccc(CNC(=O)Cn2c(=O)oc3cc(S(=O)(=O)N4CCCCCC4)ccc32)cc1 -0.479%
COc1ccc(N2CCN(C(=O)CCc3c(C)nc4c(-c5ccccc5)c(C)nn4c3C)CC2)cc1 0.724%
COc1ccc(CCNC(=O)c2ccc3c(c2)N(Cc2ccc(C)cc2)CCS3)cc1OC -13%
CC1=C(C(N)=O)C(c2ccc(C(C)C)cc2)n2nc(SCc3ccccc3)nc2N1 (stereo unspecified) -11.6%
Cc1cc(N2CCN(C)CC2)nc2ccc(NC(=O)Nc3ccccc3Br)cc12 5.06%
CCOc1ccc(S(=O)(=O)N(CC(=O)Nc2cccnc2)c2ccccc2)cc1 -21.1%
Cc1cc(C)n2nc(SCC(=O)Nc3cc(Cl)ccc3C)nc2n1 1.95%
CCOC(=O)c1cccc(NC(=O)CC(c2cc(OC)c(OC)c(OC)c2)N2Cc3ccccc3C2=O)c1 (stereo unspecified) 0%
CCn1c(=NC(=O)c2ccc(S(=O)(=O)N3CCCCC3)cc2)sc2cccc(OC)c21 -1.66%
CCc1nn2c(-c3ccccc3OC)ccnc2c1-c1ccc(F)cc1 -0.134%
COC(=O)c1ccc(NC(=O)CCc2c(C)nc3c(c(C)nn3-c3ccc(C)cc3)c2C)cc1 -11.1%
Oc1c(C(c2ccccc2F)N2CCOCC2)sc2nc(-c3ccco3)nn12 (stereo unspecified) -0.994%
CCOC(=O)C1CCN(c2c(C(=O)c3ccc(OCC)cc3)cnc3ccc(OC)cc23)CC1 6.38%
Cc1cccc(NC(=O)c2oc3c(c2C)-c2[nH]ncc2CC3)c1C -13.5%
CCN(c1ccccc1)S(=O)(=O)c1ccc2[nH]cc(C(=O)NC3CCCCC3)c(=O)c2c1 -0.517%
Cc1nc2c(C(=O)NCc3ccccc3Cl)c[nH]n2c(=O)c1Cc1cccc(Cl)c1 0.953%
CC(NC(=O)CSc1n[nH]c(-c2ccccc2Cl)n1)c1nc2ccccc2n1C (stereo unspecified) 0%
Cc1c(Cl)cccc1NC(=O)CC(c1cccs1)N1Cc2ccccc2C1=O (stereo unspecified) -5.77%
CCOc1ccc(NC(=O)CN2CCN(Cc3ccccc3)S2(=O)=O)cc1 0%
COc1c(C)cc(S(=O)(=O)Nc2cccc(-c3ccc(N4CCOCC4)nn3)c2)c(C)c1C 4.89%
CCCCN(C)CCCNC(=O)CN1C(=O)COc2ccc(S(=O)(=O)N3CCC(C)CC3)cc21 -2.06%
CCOC(=O)N1CCc2c(sc(NCc3sccc3C)c2C(=O)Nc2cc(OC)ccc2OC)C1 -5.15%
Cc1cc(=O)[nH]c2nnc(SCc3ccc(Cl)c(Cl)c3)n12 -0.681%
COc1cccc(NC(=O)CSc2cc(=O)n(C)c3ccc(Cl)cc23)c1 -2.67%
CCCCNC(=O)C1CCN(C(=O)N2CC(C)Oc3ccc(Cl)cc32)CC1 (stereo unspecified) 3.28%
CCOc1ccccc1-n1c(C)nc2cc(C(=O)O)ccc21 0.873%
Cc1cccc(C(=O)N2CCc3cc(CNC(=O)c4ccnn4C)ccc32)c1 -8.59%
CCOc1ccccc1NC(=O)CN1C(=O)COc2ccc(S(=O)(=O)N3CCCCCC3)cc21 -0.983%
COc1ccc(NC(=O)c2c(C(=O)Nc3ccccc3)sc3nc(C)cc(=O)n23)cc1 1.83%
CCOc1ccccc1NC(=O)Cc1coc2c(C)c(C)ccc12 -9.43%
N#C/C(=C\c1ccc(F)cc1)C(=O)NCC1CCCO1 (stereo unspecified) -5.1%
Cc1ccc(CCNC(=O)C(CC(C)C)NS(=O)(=O)c2ccc3c(c2)oc(=O)n3C)cc1 (stereo unspecified) 0.766%
O=C(CCCn1c(=O)[nH]c2ccccc2c1=O)NCc1ccccc1Cl -0.289%
CCc1nn(CC(=O)NCCCOC)c(=O)c2cc3occc3n12 -11.1%
COc1cccc(NC(=O)CSc2nc3ccc(NC(=O)c4ccco4)cc3s2)c1 -10.9%
CCCN(CCC)CCCNC(=O)Cn1cnc2onc(-c3ccc(F)cc3)c2c1=O -1.6%
O=C(Cn1cnc2c(nc3n2CCCCC3)c1=O)Nc1ccc(F)cc1 -4.91%
Cc1ccc(-c2nnc(Nc3ccc(Br)cc3)c3ccccc23)cc1S(=O)(=O)N1CCCCC1 16.8%
COC(=O)C(C)Sc1nnc2cc(C)c3cc(C)cc(C)c3n12 (stereo unspecified) 0.52%
COc1cc(-c2cc(OC)c3c(C)oc(C)c3c(=O)c2)ccc1OC(=O)c1ccccc1C -8.81%
O=C(CN1C(=O)C(c2ccc(F)cc2)=NC12CCCCCC2)Nc1ccc(F)c(Cl)c1 -7.8%
CCC(=O)NC1CC(=O)N(c2ccc3c(c2)OCCO3)C1 (stereo unspecified) 1.49%
Cc1ccc2c(=O)cc(C(=O)Nc3c(C)n(C)n(-c4ccccc4)c3=O)oc2c1C 2.08%
COc1ccccc1NC(=O)Cn1c(=O)n(Cc2ccco2)c(=O)c2oc3ccccc3c21 -5.68%
Cc1cc(C)c2c(-n3cccc3)c(C(=O)NCCc3ccc(Cl)cc3)sc2n1 -5.53%
CN(C(=O)c1nc(-c2cccc(F)c2)n2c1CCCCC2)c1ccccc1F -7.65%
CCCOc1ccc(NC(=O)CC2C(=O)N(c3ccccc3)C(=O)N2CCC(C)C)cc1 (stereo unspecified) -1.81%
COc1cc(C2c3c(-c4ccccc4O)n[nH]c3C(=O)N2Cc2ccncc2)ccc1O (stereo unspecified) -4.88%
Cc1ccccc1NC(=O)c1ccccc1NC(=O)c1ccccc1Cl 7.47%
COc1cccc(CNC(=O)CC(c2ccc(F)cc2)N2Cc3ccccc3C2=O)c1 (stereo unspecified) -1.5%
CCc1ccc(NC(=O)CSc2ccc3nnc(CCNS(=O)(=O)c4ccc(OC)cc4)n3n2)cc1 0.621%
CCc1ccc(NC(=O)C2CCN(c3cc(C)nc4c(-c5ccc(Cl)cc5)c(C)nn34)CC2)cc1 -7.37%
Cc1nc2ccc(S(=O)(=O)CCC(=O)Nc3ccc(F)cc3C)cc2s1 -4.93%
COc1cc(Cl)c(NC(=O)C2CCN(S(=O)(=O)c3c(C)noc3/C=C/c3ccccc3F)CC2)c(OC)c1 4.18%
CC(C)c1ccc(NC(=O)CCCc2nc(-c3ccc(Cl)cc3)no2)cc1 -5.75%
Cc1ccc(C2=Nc3ccccc3NC(c3ccncc3)=N2)cc1 1.42%
CCOc1ccc(-c2nc3c(C#N)c[nH]n3c2NC2CCCC2)cc1 -9.13%
CNS(=O)(=O)c1cn(CC(=O)Nc2ccc(C)cc2C)cc1S(=O)(=O)NC 0.351%
COc1ccc(NS(=O)(=O)c2ccc(NC(=O)N3CCCC3)cc2)cc1 -0.818%
CCOC(=O)c1cc(-c2ccc(C)cc2)nn1Cc1ccccc1 -6.17%
Cc1ccc(-c2cn3c(n2)sc2cc(C(=O)NCCCc4ccccc4)ccc23)cc1 5.23%
COc1ccc(CCNC(=O)CCc2c(C)nc3c(c(C)nn3-c3ccc(C)cc3)c2C)c(OC)c1 0.0607%
CCc1ccccc1NC(=O)C1CCCN(S(=O)(=O)c2cccc3nsnc23)C1 (stereo unspecified) -0.11%
COc1ccc(-c2cc(C(=O)Nc3c(Cl)cccc3Cl)no2)cc1OC -22.1%
Cc1ccc(-n2c3c(c(=O)[nH]c2=O)C(NC(=O)c2ccccc2F)(C(F)(F)F)C(=O)N3)cc1C (stereo unspecified) 3.98%
CCN(CCCNC(=O)c1cc2c(=O)n(CC)c3ccccc3c2s1)c1cccc(C)c1 -8.49%
Cc1ccccc1-c1nc(CS(=O)(=O)CC(=O)NC(C)c2ccccc2)c(C)o1 (stereo unspecified) 1.26%
COc1ccc2c(c1)c(=O)c(S(=O)(=O)c1ccc(C)c(C)c1)cn2CC(=O)Nc1ccccc1 -4.6%
COc1ccc(Cl)cc1NC(=O)CN(c1cc(C)cc(C)c1)S(=O)(=O)c1c(C)n[nH]c1C -15.2%
CCc1ccc(NC(=O)c2cc3c(=O)n(Cc4cccs4)ccc3nc2C)cc1 -18.2%
O=C(Nc1cc(F)ccc1F)C1COc2ccccc2C1 (stereo unspecified) -4.83%
COc1cc(-c2noc(C3CC(=O)N(c4ccc5c(c4)OCCO5)C3)n2)cc(OC)c1OC (stereo unspecified) -11.2%
Cc1ccc(CNc2ccc(-c3nc(-c4ccco4)no3)cc2[N+](=O)[O-])cc1 0.226%
Cc1ccc(S(=O)(=O)c2nc(-c3ccccc3)oc2N2CCN(c3ccccc3)CC2)cc1 -9.37%
COc1ccc(C(=O)Nc2ccc(-n3nncc3-c3ccc(OC)c(OC)c3)cc2)cc1 6.4%
Cc1ccc(-c2cc(C(=O)O)n(Cc3ccccc3)n2)cc1 -1.84%
Cc1nn(CC(=O)NCCc2ccccc2Cl)c(=O)c2nn(-c3ccccc3)c(C)c12 -4.5%
O=S(=O)(c1ccccc1)N1CCC(c2ccncc2)CC1 1.5%
O=C1COc2cc(S(=O)(=O)CCC(=O)N3CCN(c4cccc(Cl)c4)CC3)c(Cl)cc2N1 6.29%
CCOc1ccc(CNC(=O)Cn2nc(C)c3nn(-c4ccc(Cl)cc4)c(C)c3c2=O)cc1OC 11.2%
COc1ccc(CNCc2c(C(=O)O)c(C)n(Cc3ccc(Cl)cc3)c2C)c(OC)c1 -0.203%
CC(=O)c1cc(-c2ccc(F)cc2)n(CCC(=O)Nc2nc3c(C)cccc3s2)c1C -7.24%
Cc1ccc2c(c1)c1c(c(=O)n(-c3ccccc3C)c(=O)n1CC(=O)NCCC1=CCCCC1)n2C -0.338%
Cc1ccc(-c2cc(C(=O)Nc3c(C(=O)c4ccccc4)oc4ccccc34)no2)cc1F -0.906%
Cc1ccc(Cc2nc3ccccc3nc2SCC(=O)Nc2cccc(C(F)(F)F)c2)cc1 2.03%
COC(=O)c1cnn(-c2ccc(C(=O)Nc3ccc(C(C)=O)cc3)cc2)c1N -1.06%
O=C(CN1CCSc2ccccc21)N1CCN(c2cccc(Cl)c2)CC1 -0.474%
Cc1ccc(-n2ncc3c(NC4CCCCC4)ncnc32)cc1 8.11%
Cc1ccc(CNS(=O)(=O)c2c(C)nc3scc(C)n3c2=O)cc1 7.46%
CC(C)(C)c1ccc(S(=O)(=O)NCc2nc3cccnc3n2Cc2ccccc2Cl)cc1 -16.4%
Cc1nc(N2CCCC2)c2c(C(=O)N3CCN(c4cccc(C)c4C)CC3)c(C)oc2n1 5.53%
CCC(=O)Nc1ccc2nc(SCc3ccc(C)cc3)sc2c1 -6.9%
CC(C)c1ccccc1NC(=O)CN1C(=O)c2cccc3cccc1c23 -13.2%
O=C(CSc1nc(-c2ccccc2)[nH]c1-c1ccccc1)Nc1ccc2c(c1)OCCO2 2.44%
CCCSCCCNC(=O)c1ccc2c(c1)nc1n2CCCCC1 7.21%
